Laboratory results: the supplement of paper PMC11417369
Some of the results follow.

tested on: PfHDP1 homeodomain (GST-tagged); test: gcPBM binding intensity (ln(normalized median fluorescence intensity)); higher = stronger DNA binding
How it was run: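 The highest Masliner-normalised natural-log median intensity across replicate spots of either probe orientation is reported as binding intensity. GST-tagged P. falciparum DNA-binding domains expressed in E. coli were applied for 1 h to an Agilent 4 × 180k array of primer-extended double-stranded 36-bp intergenic genomic probes plus negative controls, and bound protein was detected with Alexa488 anti-GST antibody and scanned at 488 nm.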

| Sequence | gcPBM binding intensity (ln) |
| --- | --- |
| AATAAATAGAAAGAGGTGCTACATTATATTATTTAT | 6.34 |
| ATAGATATAACATATGCATGTAAAATATAACCACTC [TGCATGCA_site60] | 6.65 |
| TATTTTGTATTCATTTGTCACATATAATAGATAGGA [TGCATGCA_negctrl_site9] | 6.82 |
| AATATATGTATATCCACACACATATATATATATATA [CACACA_site1633] | 9.44 |
| TGTGCGGAAATAAGTGCACACATAGATATATGTATT [CACACA_site9227] | 9.46 |
| TATATATAATATTTTTCACACACCATTTCCTTAAAC [CACACA_site1341] | 6.56 |
| TTTTTTTTTTTTTTTTGTACATAATAAATGTTCTTA [XGTACX_site6754] | 6.28 |
| TGTATCTATAATAAAACACACATTTTTAATGTGCTC [CACACA_site6788] | 6.21 |
| CGCTCTCTTTAATATTGTACATATATATTATATATA [XGTACX_site7017] | 7.03 |
| TAATAAATGACAAATTAACACACATATATTATATAT [CACACA_site9294] | 6.53 |
| ATAAATCAAATGCACACACACAAAAAAAAAAAAAAA [CACACA_site6221] | 9.77 |
| TACAAAAATATATAAACACACAAATATAATATATAT [CACACA_site2942] | 6.72 |
| ATATTTATAACTTGGTGTACTTTGAAAAAAAAAAAA [XGTACX_site5194] | 6.23 |
| AAAAAAAAAAAAAACACACATACATACATACATATA [CACACA_site4121] | 6.57 |
| TTATATTAGCCGATGGTGCATATATTTATAGGAAAA [GTGCAC_site9518] | 9.88 |
| ATAATTTTTTAGATCACACATATAAATAAATAAATA [CACACA_site5175] | 6.34 |
| GGATAATCATACGAAGCATGCTGAATTTCCAAATAA [TGCATGCA_site1013] | 6.25 |
| AAAAAAATTAAATGGGGTACAATAAGGGTCAAATAT [XGTACX_site8669] | 7.1 |
| AAAAAAAAAAATGGCTGTACATAATATTTAAATAGG [XGTACX_site4286] | 6.89 |
| TTTTATTATATATATTGTACATATATTTTTATTTTT [XGTACX_site1564] | 6.7 |
| AATTTATAAATAATTAATTTGATAAATTATAAAGGG [GTGCAC_negctrl_site544] | 6.64 |
| TTAGATAGATTTGTACGTACTTATTATAACGTATCA [XGTACX_site5067] | 6.11 |

| Sequence | gcPBM binding intensity (ln) |
| --- | --- |
| ACATATTTATATGTCTGTACAAATATGCAATTTTTT [XGTACX_site5516] | 6.91 |
| ATTTAATAAAAAAAAAAAATATTGTAGAATATGATG [GTGCAC_negctrl_site195] | 6.33 |
| ATAAACATCGGTAGTACACACATTCATGTACTTGAT [CACACA_site3037] | 6.44 |
| AATTTGTAAAATAAGGTGCGTATAAAAAATTATATT [GTGCAC_site9676] | 6.77 |
| ATATACATATTCTTGTGTACATAAAAATTTATATAT [XGTACX_site8726] | 6.55 |
| CAAATGGTAAATGAAAGTACAAATTGTTTTGATTAA [XGTACX_site1536] | 6.26 |
| TTTATAATTTTAAAATGTACAAGGAGGAAAAATTCT [XGTACX_site422] | 6.87 |
| TATATAAATATTCGTAGTACAATACAATTATAAGTA [XGTACX_site3068] | 6.47 |
| TTATATTTTATATTTACACACATTTATATTTATAAA [CACACA_site203] | 6.42 |
| TAAAAATATTTAAACTGTACTATTTTATGTTAAATG [XGTACX_site6620] | 5.93 |
| ATAATCCAAAAAAATCAAATAAAATAAAATAAAATA [CACACA_negctrl_site449] | 6.37 |
| AATAAAAACTACATGTGTACATAATAAATACATATA [XGTACX_site755] | 6.73 |
| TTTTTTCTTTTCTTTTTATTTTATTTTGTTTTATTT [CACACA_negctrl_site799] | 6.07 |
| TGTTGCAAAACAAAAAAAAAAAAAAAAAATAATAAT [CACACA_negctrl_site1642] | 6.66 |
| TGAACCAGATTTAGAAGTACTAAATATTACATACAT [XGTACX_site2437] | 6.2 |
| TATATATTAAAACACACACACATATATATATATATA [CACACA_site3787] | 9.43 |
| ATTTTAATGGGACATGCATGGGACAAACTACAAATT [TGCATGCA_site853] | 7.26 |
| CAGAAATATTAATGCTGTACGGAATACATATATTTT [XGTACX_site539] | 6.18 |
| AGAATATTTATATGATGTACTTATATATATATATAT [XGTACX_site3021] | 8.98 |
| GTATATAATTTTTTTTTTTTTTTCATTCTTTTCCTT [CACACA_negctrl_site1780] | 6.39 |
| ATGAATTGACCATATTGTACATATTTAGGACTTACC [XGTACX_site8072] | 6.71 |
| AAATATATGAAATATACACACTTCTTTGGTATTATT [CACACA_site4414] | 6.29 |

| Sequence | gcPBM binding intensity (ln) |
| --- | --- |
| TTTTCTTACATGAGTGTACACACTTTTTTTCAGAAA [CACACA_site70] | 7.98 |
| TTTATATAATTTTAATGTACATATATATATATAAAT [XGTACX_site4381] | 6.49 |
| ATATATCATAAATAAATGAAAATATTTTCTATGTGT [CACACA_negctrl_site689] | 6.77 |
| TTATTTGAATAATGTTTGCACTTAGAGTATTTTATA | 8.74 |
| TAATAAATAAGATTCACACATATTTAAATGTTATGC [CACACA_site5275] | 6.1 |
| TTCTTCACATACACTTCAAAATTTGATAAAACATTA [CACACA_negctrl_site472] | 7.18 |
| TATCTATAATATTATACACACATATATGCATAATAT [CACACA_site6175] | 7.4 |
| TATATATTTTTTTCAAGTACACATTACAGTTACATA [XGTACX_site2713] | 6.65 |
| ATGTTTTCTCTTTCGGTGCATTGTTTTCTATACTTT [GTGCAC_site9483] | 9.41 |
| ATTCGATGTTTTAAATGTACACAAATTGAAGGAATA [XGTACX_site409] | 6.77 |
| TAAAAATATCTGTATACACACATATATATATATATA [CACACA_site6042] | 9.57 |
| AAAAAAAAAAAAAAAAGTACAAATCTTTATTTATTA [XGTACX_site3305] | 6.25 |
| ATAATATAATATAAAACACACATATGTACCTTCTAA [CACACA_site2761] | 6.42 |
| CAAGTTCAAAATACAAGGAAGAAACAAAACTTGGCG [GTGCAC_negctrl_site600] | 6.94 |
| TATTATAAAACATTATGTACATATTCTGAAAAATAG [XGTACX_site6577] | 6.5 |
| TATTTCTTATTTATTTTTTAAGGAAATTAAAGATTT [CACACA_negctrl_site258] | 5.95 |
| CAAAATAAAAAATTCACACACATATATATATATATA [CACACA_site2088] | 9.29 |
| AAAACAAATGCTTAAAGTACTTATTATTTTTCTTTT [XGTACX_site6324] | 6.9 |
| TTCCTACTATTCAAACGTACAAAATATTTAAATAAT [XGTACX_site700] | 6.5 |
| TATGATATCTATAATACACACATATACATAAGATCT [CACACA_site6652] | 6.6 |
| TTAATATAACTTTTTGCACACTTAATTTTTTTTTTT [CACACA_site3364] | 10.2 |
| TTATATAAAACATTAACACACAAAGAAAAAAAATTA [CACACA_site1793] | 6.61 |

| Sequence | gcPBM binding intensity (ln) |
| --- | --- |
| TGGTGATCAAAATATACATGCATATGTTCTGTTATT [TGCATGCA_site614] | 6.39 |
| TATATATTAGAAGATAGTACATATATATTTATTAAT [XGTACX_site1011] | 6.48 |
| GCTCAATGTTTTACATGTACATATATATATATATAT [XGTACX_site8210] | 9.4 |
| TAATATTTCTTATTTTATATTTGTATATGAATGGAT [XGTACX_negctrl_site278] | 6.23 |
| ATATAAATCATTGGTTGTACATATAATATTTTATAA [XGTACX_site925] | 6.28 |
| TATTTTTACCCATAAAGTACACATAAATATAAAATA [XGTACX_site177] | 6.61 |
| TATATATCTATATATTGTACATATGTTTGTATGTGT [XGTACX_site7420] | 6.55 |
| TTTGTGTAAAGAATCAGTACATATAATATATATATA [XGTACX_site1972] | 8.2 |
| GTGCTACATCATATGTGTACATATACCAAACTGTAT [XGTACX_site8233] | 6.89 |
| ATATGTATTGGAGTGTGTACATATATATATATTTAT [XGTACX_site5633] | 6.85 |
| TTAATAATGTTTTATTGTACTTTTTTGTGGGTTTAT [XGTACX_site5670] | 6.66 |
| ATATACATTCAAGGCTGTACACTATATTTTTTTTTT [XGTACX_site6514] | 6.87 |
| TATTTTATATGATAGGTGCATTTTTTTTTTTTTTTT [GTGCAC_site9757] | 9.34 |
| CTTGACCCCCTTTGTTGTACTGACATTTGTGAGCTT [XGTACX_site591] | 6.61 |
| ATTTTTTCAAAATGGAAAACTTATCAGTGAAAAAAA [CACACA_negctrl_site1087] | 6.29 |
| ATTTTTTTATACAATTTTATATATTAAATATTATAA [GTGCAC_negctrl_site86] | 6.48 |
| TAAAAATGGGAGGGGTGTACTACACAATAAAATTAT [XGTACX_site5641] | 7.41 |
| TGTATTTTTAACATATGTACGAATAGCACGTGTTAT [XGTACX_site3640] | 6.86 |
| TAATTTAAAAATTCCTGTACTCAGTTTTTTCTATTT [XGTACX_site4961] | 6.15 |
| TAAGTGTATGTATATAAACACACATACATATATATA [CACACA_site8397] | 6.76 |
| AGTATACACGAACACACACACACATATATAAATATA [CACACA_site6913] | 6.93 |
| TAAAGTATTACAACCACACACACACCCATATATTAT [CACACA_site4159] | 6.71 |
